One test addresses His-tagged GSK3β (UniProt P49841). Description: pull-down; purified GST-STYK1 ICD incubated with His-tagged β-catenin or GSK3β and Ni-sepharose beads overnight at 4 °C, Western blot; both purified. On the technique in general: In western blotting, separated proteins are transferred to a membrane and probed.
For another test, the target named is His-tagged β-catenin (UniProt P35222). Described as above.

The chains behind the UniProt entries cited, without tags or fusion partners.
UniProt P49841: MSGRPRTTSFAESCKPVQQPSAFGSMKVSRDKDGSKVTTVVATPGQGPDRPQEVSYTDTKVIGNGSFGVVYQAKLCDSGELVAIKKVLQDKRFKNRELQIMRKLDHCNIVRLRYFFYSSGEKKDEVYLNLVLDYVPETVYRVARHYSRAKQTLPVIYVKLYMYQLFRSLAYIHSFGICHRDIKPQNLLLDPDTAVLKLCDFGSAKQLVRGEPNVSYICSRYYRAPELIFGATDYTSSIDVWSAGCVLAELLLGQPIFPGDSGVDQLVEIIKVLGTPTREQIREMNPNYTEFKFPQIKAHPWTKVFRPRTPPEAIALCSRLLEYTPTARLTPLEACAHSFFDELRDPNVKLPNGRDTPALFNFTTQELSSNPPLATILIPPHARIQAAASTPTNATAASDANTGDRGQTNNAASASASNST
UniProt P35222: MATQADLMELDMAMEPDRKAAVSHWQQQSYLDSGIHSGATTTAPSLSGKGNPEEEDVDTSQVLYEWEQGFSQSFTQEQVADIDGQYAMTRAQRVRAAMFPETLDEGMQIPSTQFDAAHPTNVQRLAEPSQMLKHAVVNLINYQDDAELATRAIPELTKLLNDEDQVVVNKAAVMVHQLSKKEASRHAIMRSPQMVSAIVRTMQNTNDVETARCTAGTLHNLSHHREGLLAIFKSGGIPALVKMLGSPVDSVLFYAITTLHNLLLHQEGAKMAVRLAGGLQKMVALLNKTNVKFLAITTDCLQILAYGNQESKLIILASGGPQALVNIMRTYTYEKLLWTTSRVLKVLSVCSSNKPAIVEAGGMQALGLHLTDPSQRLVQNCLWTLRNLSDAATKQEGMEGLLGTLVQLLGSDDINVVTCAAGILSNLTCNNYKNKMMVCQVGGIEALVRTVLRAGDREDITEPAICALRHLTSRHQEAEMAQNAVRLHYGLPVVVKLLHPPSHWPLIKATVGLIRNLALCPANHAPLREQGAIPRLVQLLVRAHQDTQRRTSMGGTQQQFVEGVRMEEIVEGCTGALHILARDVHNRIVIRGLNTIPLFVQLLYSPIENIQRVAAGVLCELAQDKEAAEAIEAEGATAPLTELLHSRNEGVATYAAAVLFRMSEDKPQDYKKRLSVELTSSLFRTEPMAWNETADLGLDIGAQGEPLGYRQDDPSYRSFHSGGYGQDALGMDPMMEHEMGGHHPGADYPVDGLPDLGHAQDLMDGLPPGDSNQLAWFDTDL

The values that follow come from PMC12209456, “Serine/threonine/tyrosine kinase 1 drives pancreatic carcinogenesis via GSK3β sequestration-mediated Wnt/β-catenin pathway hyperactivation” (Signal Transduction and Targeted Therapy, 2025).

No constants are given. Whether binding was seen depends on the method and setting. Some entries that bind do so weakly or less than the wild type. Tags and fused reporters may be left off the sequences shown.

B1: GST-tagged STYK1 ICD (aa 26-422) (domain or fragment, UniProt Q6J9G0 26-422)
chain: VIIVPTLLVTIFLILLGVILWLFIREQRTQQQRSGPQGIAPVPPPRDLSWEAGHGGNVALPLKETSVENFLGATTPALAKLQVPREQLSEVLEQICSGSCGPIFRANMNTGDPSKPKSVILKALKEPAGLHEVQDFLGRIQFHQYLGKHKNLVQLEGCCTEKLPLYMVLEDVAQGDLLSFLWTCRRDVMTMDGLLYDLTEKQVYHIGKQVLLALEFLQEKHLFHGDVAARNILMQSDLTAKLCGLGLAYEVYTRGAISSTQTIPLKWLAPERLLLRPASIRADVWSFGILLYEMVTLGAPPYPEVPPTSILEHLQRRKIMKRPSSCTHTMYSIMKSCWRWREADRPSPRELRLRLEAAIKTADDEAVLQVPELVVPELYAAVAGIRVESLFYNYSML
On to B1, for which the binding result with His-tagged GSK3β and with His-tagged β-catenin was “binds” throughout.
